Test results reported in PubChem BioAssay AID1458 (National Center for Advancing Translational Sciences (NCATS), 2008).
Out of some 210,000 compounds screened, about 5,900 (2.8%) were called active. The shares of active, inactive and inconclusive entries below differ from those in the screen. Calls come from the whole dose curve; as a rule, active = well fitted activation curve with a large enough effect; inconclusive = small, poorly fitted or top-dose-only effect; inactive = no such curve, though single readings can be large or run the other way. Potencies of inconclusive entries are doubtful fits and often do not repeat.

Test: qHTS Assay for Enhancers of SMN2 Splice Variant Expression; note: nearly all actives have a fitted effect of over 55% in size; for activity change, positive = activation: % of control where 0% means no effect
Conditions: HEK293 SMN2-luciferase splicing reporter, luminescence, 30-36 h; activity change, positive = activation: at 46.1 µM (top of the series)
Method in brief: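 HEK293 cells carry an SMN2 minigene-luciferase reporter in which exon 7 inclusion puts luciferase in frame. Cells were seeded at 2000 cells/well, attached for 10-12 hours, then exposed to compounds for 30-36 hours at 37C before ONE-Glo luminescence.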
Potency is the fitted concentration of half-maximal effect; tags give direction and shape of the fitted curve.

Row | Structure (SMILES) | Potency | activity change, positive = activation
1 | O=c1cc(CNc2cc(Cl)ccc2Cl)nc2sccn12 | inconclusive: 22.4 µM [activator, partial curve, poor fit] | –
2 | COC(=O)c1ccc(NC(=O)C(=O)N2CCN(C(=S)Nc3ccccc3OC)CC2)cc1 | inconclusive: 0.794 µM [activator, single point] | –
3 | CCNC(=O)N1C(CC(=O)OCC)C(=O)NC2CCCCC21 (stereo unspecified) | inconclusive: 0.0045 µM [activator, full curve, poor fit] | –
4 | Cc1c(NC(=O)CSc2nc3ccccc3n2C)c(=O)n(-c2ccccc2)n1C | – | inactive: -13.6%
5 | CCCOc1ccc(NC(=O)C2CC(=O)N3CCCN=C3S2)cc1 (stereo unspecified) | inconclusive: 3.98 µM [activator, single point] | –
6 | CCN(CC)c1ccc(NC(=O)CN2CCN(c3nc(C)cc(C)n3)CC2)cc1 | inconclusive: 0.891 µM [activator, partial curve, poor fit] | –
7 | CCCCCCCCCCCCCCCC(=O)OCC(COP(=O)(O)O)OC(=O)CCCCCCCCCCCCCCC (stereo unspecified) | inconclusive: 0.708 µM [activator, full curve, poor fit] | –
8 | Oc1ccc(-c2cccc(-c3ccc(O)cc3)n2)cc1 | – | inconclusive: 36.9% [activator]
9 | Cc1ccc(C(=O)Nc2nccs2)cc1 | active: 10 µM | –
10 | Cn1c(=O)c2ncn(CC(=O)Nc3cccc(-c4nc5ccccc5s4)c3)c2n(C)c1=O | – | inactive: -20.3%
11 | CN(C)c1ccc(CNn2cnnc2SCc2ccccc2F)cc1 | inconclusive: 22.4 µM [activator, single point] | –
12 | N#Cc1ccc(/C=N/NC(=O)c2ccccc2F)cc1 | inconclusive: 14.1 µM [activator, partial curve, poor fit] | –
13 | CCCN(CCC)S(=O)(=O)c1ccc(C(=O)N2CCn3c4c(c5cc(C)ccc53)CCCC42)cc1 (stereo unspecified) | – | inactive: -1.32%
14 | O=C(COc1ccc(Cl)cc1Cl)Nc1ccc(C(=O)OC2CCCCC2)cc1 | – | inactive: 1.35%
15 | COc1ccc(NC(=O)c2ccc(Br)o2)cc1 | active: 14.1 µM | –
16 | COc1ccc2c(c1)c(CC(=O)Nc1cc(C)c(OC)c(C)c1)c(C)n2C(=O)c1ccc(Cl)cc1 | – | inactive: -2.83%
17 | CC(CCc1ccccc1)NC(=O)C1CCCN(c2nnc(-n3cccc3)s2)C1 (stereo unspecified) | – | inactive: 0.985%
18 | Cc1occc1C(=O)Nc1ccc2ccccc2c1 | active: 11.2 µM | –
19 | CCc1ccccc1NC(=O)CSc1nccn1C | – | inactive: 0.0185%
20 | CN(Cc1nc(-c2ccncc2)no1)S(=O)(=O)c1ccc(Cl)cc1 | inconclusive: 1 µM [activator, full curve] | –
21 | CC(=O)c1cccc(NC(=O)c2cc(C(C)C)on2)c1 | inconclusive: 31.6 µM [activator, single point] | –
22 | Cc1ccc(-c2nn(-c3ccccc3)cc2CN(C)C(=O)CCC(=O)O)cc1C | – | inactive: 5.3%
23 | CCN=C1NN=C(c2ccc(C)cc2)CS1 | inconclusive: 5.62 µM [activator, single point] | –
24 | CC(C)CNC(=O)c1cccc(NC(=O)C2CCCO2)c1 (stereo unspecified) | inconclusive: 0.0224 µM [activator, full curve, poor fit] | –
25 | Cc1ccc(C)c(NC(=O)C(NS(=O)(=O)c2ccc3c(c2)CCC(=O)N3)c2ccccc2)c1 (stereo unspecified) | inconclusive: 0.0032 µM [activator, full curve, poor fit] | –
26 | CCC(C)n1c(=N)c(C(=O)NC2CCCCC2)cc2c(=O)n3cc(C)ccc3nc21 (stereo unspecified) | – | inactive: -7.49%

Row | Structure (SMILES) | Potency | activity change, positive = activation
27 | Cn1c(NC(=O)/C=C/c2ccccc2)cc(=O)n(C)c1=O | active: 7.94 µM | –
28 | COc1ccc2c(Cl)c(C(=O)N/N=C3\CCCC(=O)C3)sc2c1 | inconclusive: 8.91 µM [activator, partial curve] | –
29 | CCCc1ccc(OCc2nc(-c3ccc(NC(=O)c4cccs4)cc3)no2)cc1 | inconclusive: 31.6 µM [activator, single point] | –
30 | Fc1ccc(-c2nc3c(Cl)cc(C(F)(F)F)cn3c2Cl)cc1 | active: 17.8 µM | –
31 | CCn1c(=O)n(CC)c2cc(S(=O)(=O)Nc3ccccc3C)c(C)cc21 | active: 7.94 µM | –
32 | O=C1C2C3CCC(C3NCc3ccccc3)C2C(=O)N1Cc1ccccc1 (stereo unspecified) | – | inactive: 3.65%
33 | COc1ccccc1N1CCN(C(=O)c2oc3ccccc3c2N)CC1 | – | inactive: -4.43%
34 | Cc1cc(N)n2nc(-c3ccccc3)cc2n1 | active: 7.94 µM | –
35 | COCC(C)n1c(C)cc(C(=O)COC(=O)c2ccc(N3CCCC3=O)cc2)c1C (stereo unspecified) | – | inactive: -7.98%
36 | CC(=O)N1CCC2(CC1)CN(c1ccccc1)C2 | – | inactive: -25.6%
37 | O=C(Nc1ccc(N2CCOCC2)c(Cl)c1)c1c(F)c(F)c(F)c(F)c1F | inconclusive: 0.112 µM [activator, full curve, poor fit] | –
38 | CC(=O)C1=C(N2CCCCC2)CCC1=O | inconclusive: 0.398 µM [activator, full curve, poor fit] | –
39 | COc1ccc2c(c1)C1CC(C)(NC(=O)C1C(=O)c1ccccc1)O2 (stereo unspecified) | inconclusive: 0.0079 µM [activator, full curve, poor fit] | –
40 | N#Cc1cc2c(nc1SCc1ccncc1)CCC2 | active: 11.2 µM | –
41 | c1ccc(Nc2ncnc3c2oc2ccccc23)cc1 | – | inactive: -0.308%
42 | Fc1ccc2nc(Nc3nc4c(F)cccc4s3)sc2c1 | inconclusive: 7.94 µM [activator, partial curve] | –
43 | CC1CCCCC1NC(=O)/C=C/c1nc2ccccc2s1 (stereo unspecified) | – | inactive: 46.6%
44 | Cc1ccc(NC(=O)N2CCc3ccccc32)cc1C | active: 1.41 µM | –
45 | Cc1ccnc(NC(=O)/C=C/c2ccccc2[N+](=O)[O-])c1 | active: 2.82 µM | –
46 | COc1cc(C(=O)NCc2nnc(SCC(=O)Nc3nc4ccccc4s3)o2)cc(OC)c1OC | inconclusive: 22.4 µM [activator, single point] | –
47 | CC(=O)c1ccc(Nc2ccc(-c3ccccc3F)nn2)cc1 | active: 7.08 µM | –
48 | COc1ccc(CC(=O)NC(C)c2nnc(SCC(=O)Nc3nc(C)cs3)n2C)cc1 (stereo unspecified) | inconclusive: 2.82 µM [activator, partial curve] | –
49 | COc1ccc([C@H]2[C@@H](C#N)[C@H](C#N)N3CCCN23)cc1 | inconclusive: 0.0708 µM [activator, partial curve, poor fit] | –
50 | O=C(c1ccc(Cl)cc1)c1ccc(OCC(=O)N2CCOCC2)cc1 | – | inactive: -16.9%
51 | CCOc1ccc(N=Nc2c(=O)[nH]n3c(=O)cc(C)[nH]c23)cc1 | inconclusive: 12.6 µM [activator, single point] | –
52 | COc1ccc2[nH]c(=O)c(-c3noc(-c4ccc(F)cc4)n3)cc2c1 | – | inactive: 17%

Row | Structure (SMILES) | Potency | activity change, positive = activation
53 | CCCc1[nH]n(-c2nc3ccccc3s2)c(=O)c1C=NCC(C)C | inconclusive: 31.6 µM [activator, single point] | –
54 | Fc1ccc(/C=N/NC(=S)Nc2cccnc2)cc1 | – | inactive: 1.39%
55 | CCCOCC1CC2(SC(=Nc3ccc(C)cc3)NC2=O)C(=O)O1 (stereo unspecified) | inconclusive: 1.78 µM [activator, full curve] | –
56 | COc1cc(NC(=O)Cn2cc(S(=O)(=O)N3CCC(C)CC3)c3ccccc3c2=O)cc(OC)c1OC | inconclusive: 14.1 µM [activator, single point] | –
57 | Cc1ccc(-n2nc3ccc(NC(=O)c4ccco4)cc3n2)cc1 | – | inactive: 0.844%
58 | O=C(Nc1scc(-c2ccc(F)cc2)c1C(=O)O)c1ccco1 | inconclusive: 17.8 µM [activator, partial curve, poor fit] | –
59 | c1ccc(CSc2nnc(SCc3ccccn3)s2)nc1 | inconclusive: 25.1 µM [activator, single point] | –
60 | O=C(N/N=C\c1ccc(Sc2ccccn2)o1)c1cccc(F)c1 | inconclusive: 0.631 µM [activator, partial curve] | –
61 | c1ccc(-c2csc(-n3cccn3)n2)cc1 | – | inactive: 0.59%
62 | CCCCNc1nc2c(-c3cccc(Br)c3)nnn2c2ccccc12 | – | inactive: -0.0299%
63 | COC(=O)c1c(-c2cccnc2)csc1NC(=O)c1cc(C)on1 | active: 11.2 µM | –
64 | CC1(C)Cc2c(sc3nc(-c4cc5ccccc5o4)n(N)c(=O)c23)CO1 | active: 11.2 µM | –
65 | CCCCC(=O)Nc1sc2c(c1C(N)=O)CCC2 | inconclusive: 10 µM [activator, partial curve, poor fit] | –
66 | CCC(=O)N1C(C(=O)N2CCCC2)CSC1c1ccc(OC)cc1 (stereo unspecified) | inconclusive: 0.0398 µM [activator, full curve, poor fit] | –
67 | Cc1cc(C)n2nc(Nc3ccccc3)cc2n1 | – | inactive: 25.3%
68 | Cc1cc(C)c(C#N)c(SCC(=O)c2cccs2)n1 | inconclusive: 35.5 µM [activator, single point] | –
69 | CCN(CC)C1=N/C(=C\c2ccc(OC)cc2)C(=O)N1c1ccccc1 | inconclusive: 5.01 µM [activator, single point] | –
70 | CN(C)c1ccc(-c2nc3ccccn3c2Nc2ccc3c(c2)OCCO3)cc1 | inconclusive: 7.08 µM [activator, partial curve] | –
71 | O=S1(=O)N=C(Nc2ccc(N3CCOCC3)c(Cl)c2)c2ccccc21 | active: 12.6 µM | –
72 | CCc1ccccc1N1CC(c2nc3ccccc3n2CCC2CCCCC2)CC1=O (stereo unspecified) | – | inactive: -14.2%
73 | COc1cccc(NS(=O)(=O)c2ccc3[nH]cc(C(=O)N(C)Cc4ccco4)c(=O)c3c2)c1 | inconclusive: 5.62 µM [activator, single point] | –
74 | O=C(Nc1ccc(-c2ccc([N+](=O)[O-])cc2)cc1)c1ccccc1F | inconclusive: 35.5 µM [activator, single point] | –
75 | Nc1c(C(=O)NCc2ccco2)nnn1-c1ccccc1 | inconclusive: 20 µM [activator, partial curve, poor fit] | –
76 | O=C(CCN1CCCCC1)Nn1c(=S)[nH]c2ccccc2c1=O | inconclusive: 14.1 µM [activator, partial curve, poor fit] | –
